# Screen size: about 310,000 compounds; about 2,200 (0.71%) showed an effect of 50% or more. Effects have a minus sign here. The list shows a part of the results.
# Target: human ether-à-go-go-related gene (hERG) potassium channel (human, UniProt Q12809)
# Assay: primary screen, population patch clamp on CHO cells stably expressing hERG
# Sequence of human ether-à-go-go-related gene (hERG) potassium channel (Q12809 whole entry, looked up): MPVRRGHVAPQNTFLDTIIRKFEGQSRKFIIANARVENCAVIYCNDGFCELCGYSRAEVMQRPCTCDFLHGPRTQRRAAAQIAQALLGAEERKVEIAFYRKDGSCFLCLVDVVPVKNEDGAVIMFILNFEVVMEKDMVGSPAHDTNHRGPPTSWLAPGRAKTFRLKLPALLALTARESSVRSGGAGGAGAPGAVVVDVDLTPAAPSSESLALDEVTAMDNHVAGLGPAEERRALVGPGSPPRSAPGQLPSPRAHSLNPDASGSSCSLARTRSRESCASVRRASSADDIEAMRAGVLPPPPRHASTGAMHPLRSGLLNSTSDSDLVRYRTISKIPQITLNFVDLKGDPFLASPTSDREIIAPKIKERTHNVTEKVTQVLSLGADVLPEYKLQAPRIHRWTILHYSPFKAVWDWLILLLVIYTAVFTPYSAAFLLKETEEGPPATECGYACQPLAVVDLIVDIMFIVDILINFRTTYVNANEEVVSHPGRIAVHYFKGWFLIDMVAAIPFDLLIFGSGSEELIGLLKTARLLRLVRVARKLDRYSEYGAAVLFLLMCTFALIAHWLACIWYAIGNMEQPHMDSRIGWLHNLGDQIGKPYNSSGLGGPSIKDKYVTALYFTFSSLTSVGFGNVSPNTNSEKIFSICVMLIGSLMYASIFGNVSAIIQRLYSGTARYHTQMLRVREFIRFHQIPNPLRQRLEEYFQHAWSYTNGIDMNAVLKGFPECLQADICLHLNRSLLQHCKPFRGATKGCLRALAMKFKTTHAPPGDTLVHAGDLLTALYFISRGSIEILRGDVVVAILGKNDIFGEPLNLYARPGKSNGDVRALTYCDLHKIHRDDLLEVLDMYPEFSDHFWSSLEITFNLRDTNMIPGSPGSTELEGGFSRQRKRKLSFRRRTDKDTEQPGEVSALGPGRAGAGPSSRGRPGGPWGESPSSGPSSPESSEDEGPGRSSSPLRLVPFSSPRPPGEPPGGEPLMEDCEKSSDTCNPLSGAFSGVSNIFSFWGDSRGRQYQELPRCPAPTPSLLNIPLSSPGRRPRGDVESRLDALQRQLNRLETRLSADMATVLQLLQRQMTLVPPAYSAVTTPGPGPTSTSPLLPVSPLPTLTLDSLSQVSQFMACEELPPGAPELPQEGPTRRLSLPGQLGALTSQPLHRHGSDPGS
row,SMILES,"hERG current change (%, negative = inhibition) at 1uM"
1,c1ccc2sc(-c3ccncc3)nc2c1,7.3%
2,O=C1c2ccccc2S(=O)(=O)c2cc(C(=O)N3CCN(c4ccccc4)CC3)ccc21,-8.29%
3,COc1ccccc1Nc1cc(C(=O)NCCCN2CCOCC2)c2ccccc2n1,-8.86%
4,O=C(CSC(=S)N1CCOCC1)N1N=CCC1c1ccccc1 (centres unmarked),2.29%
5,CC(C)NC(=O)C1CCCN(S(C)(=O)=O)C1 (centres unmarked),11%
6,O=C1COc2ccc(S(=O)(=O)CCC(=O)N3CCN(c4cccc(C(F)(F)F)c4)CC3)cc2N1,-3.52%
7,O=[N+]([O-])c1ccc(NCc2ccccc2N2CCC(CO)CC2)nc1,-3.9%
8,COc1cc(NC(=S)NCCCN2CCOCC2)cc(OC)c1,7.99%
9,CCOC(=O)/C(C#N)=C1\CC2CCC1(C)C2(C)C (centres unmarked),7.45%
10,N#CCn1c(C2CCCCC2)nc2ccccc2c1=O,9.26%
11,Cc1nc2ccc(S(=O)(=O)N(C)CC(=O)Nc3ccccc3F)cc2s1,0.133%
12,COc1ccc2cc1Oc1ccc(cc1)CC1c3c(cc(OC)c4c3Oc3cc5c(cc3O4)CCNC5C2)CCN1C (centres unmarked),5.98%
13,Cn1c(SCC(=O)NCCc2ccccc2)ncc(C(=O)Nc2ccccc2)c1=O,13.6%
14,O=c1[nH][nH]c(=O)n1-c1ccccc1,2.13%
15,O=C(Nc1ccc(Oc2ccsc2C(=O)O)cc1)c1ccccc1F,13%
16,COc1ccc(N2CCN(S(=O)(=O)c3cccc4nsnc34)CC2)cc1,11.4%
17,COc1cccc(/C=C2\SC(N3CCC(C)CC3)=NC2=O)c1OC,9.62%
18,CC(C)(CO)C(O)C(=O)NCCCO (centres unmarked),13.3%
19,O=C(NCc1ccc(F)cc1)c1ccc(CS(=O)(=O)c2ccc(Br)cc2)o1,4.83%
20,CCn1c(COc2ccc(Cl)cc2)nnc1SCC(=O)Nc1ccc2c(c1)OCO2,9.66%
21,Nc1c(N2CCCC2)cc(Cl)c2nonc12,-4.6%
22,N#Cc1cc2c(nc1SCC(=O)Nc1nccs1)CCCCC2,3.89%

row,SMILES,"hERG current change (%, negative = inhibition) at 1uM"
1,CCOC(=O)c1sc(NC(=O)CSc2n[nH]c(-c3ccc(Cl)cc3Cl)n2)c(C#N)c1C,14.5%
2,CCOc1ccc(N(CC(=O)Nc2ccc(C)c(C)c2)S(=O)(=O)c2c(C)noc2C)cc1,2.97%
3,N=c1c(C(=O)NCc2ccc(F)cc2)cc2c(=O)n3ccccc3nc2n1Cc1cccnc1,-80.3%
4,CC1(C)Cc2nc3sc4c(SCC(=O)O)ncnc4c3cc2CO1,11.5%
5,O=C(NCCCN1CCN(CCCNC(=O)c2cccc(Cl)c2)CC1)c1cccc(Cl)c1,-74.5%
6,O=C(c1ccc(NS(=O)(=O)c2ccc(F)cc2)cc1)N1CCOCC1,19.3%
7,CC1CCCC(NC(=O)CSc2nncs2)C1C (centres unmarked),2.31%
8,N#C/C(=C\c1ccc([N+](=O)[O-])o1)C(=O)Nc1ccc(F)cc1,4.1%
9,CCN(CC(=O)NCc1cccs1)C(=O)CCc1c[nH]c2ccccc12,5.61%
10,CC1CCCCC1NC1CCN(C)CC1 (centres unmarked),19.6%
11,Cn1c(=O)cc(OCC(=O)Nc2ccccn2)c2ccccc21,16.5%
12,CC(C)n1nc(C(=O)Oc2cc(Cl)ccc2Cl)c2ccccc2c1=O,10.1%
13,O=C(c1ccc2ccccc2c1)N1CCN(c2ccccn2)CC1,8.35%
14,CNC(=S)Nc1ccc([N+](=O)[O-])c(C)c1,4.25%
15,Cl.O=C(Nc1ccc(C(=O)OC[C@@H]2CCCN3CCCC[C@H]23)cc1)c1cccc(Br)c1,-29.2%
16,CCCNC(=O)COC(=O)c1ccc(S(=O)(=O)N2CCCCCC2)cc1,6.01%
17,COC(=O)C1=C(C)NC(=O)NC1c1ccc(OCC(=O)N2CCCCC2)cc1 (centres unmarked),15%
18,Cc1cc(C)c2c(c1)c(C)cc1nnc(SCC(=O)NCc3ccco3)n12,12.4%
19,CC(=O)OC[C@H]1O[C@@H](O/N=C(\C)CCN2CCCCc3nc(C)c(C)cc32)[C@H](OC(C)=O)[C@@H](OC(C)=O)[C@@H]1OC(C)=O,2.09%
20,CCOC(=O)N1CCC(N2CCN(S(=O)(=O)c3ccc4ccccc4c3)CC2)CC1.O=C(O)C(=O)O,-4.39%
21,CSc1nc(SCCN(C)C)c2c3c(sc2n1)COC(C)(C)C3,-2.79%
22,CCOC(=O)c1c(NC(=S)Nc2cccc(C)c2)sc2c1CC(C)(C)SC2,-1.09%

row,SMILES,"hERG current change (%, negative = inhibition) at 1uM"
1,CCN(CC)C(=O)c1ccc(NC(=O)c2ccc(-n3cncn3)c([N+](=O)[O-])c2)cc1,4.18%
2,COc1ccc(NC(=O)CN2C(=O)NC3(CCCC3)C2=O)cc1,13%
3,COc1cccc(C(=O)NCC(=O)NCc2cc(=O)n(C)c(=O)n2C)c1OC,11.5%
4,Cc1cc(=O)n2nc(N3CCCC3C(=O)NCCCN3CCCCC3)sc2n1 (centres unmarked),9.73%
5,O=C(c1cccnc1)N1CCc2ccccc21,-9.04%
6,Cc1cccc(C)c1OCc1cc(C(=O)N2CCC(C3CCCCC3)C2)no1 (centres unmarked),10.6%
7,COC(=O)c1ccc(/C=N/N2CCN(Cc3ccccc3Cl)CC2)cc1,5.33%
8,COc1cc(/C=C/C(=O)OCC(=O)N2CC3(C)CC2CC(C)(C)C3)ccc1O (centres unmarked),-8.38%
9,COc1ccc2nc(C)cc(Nc3cccc(C(=O)O)c3)c2c1,17.3%
10,COc1ccc(CN2CCN(C(=O)c3cccc4ccccc34)CC2)cc1OC.O=C(O)C(=O)O,8%
11,COc1ccc(NC(=O)COc2ccc(/C=N/NC(=O)c3cccnc3)cc2OC)cc1,-1.04%
12,Cl.OC(COc1ccccc1)CN1CCN(CC(O)COc2ccccc2)CC1 (centres unmarked),-19.5%
13,Cc1cccc([C@@H]2[C@@H]3C(=O)N(Cc4ccccc4)C(=O)[C@@H]3[C@]3(Cc4ccccc4)C(=O)N(c4cccc(F)c4)C(=O)N23)c1,9.13%
14,O=C(CN1C(=O)/C(=C\c2ccccc2F)SC1=S)Nc1nc2ccccc2s1,6.88%
15,Cc1ccc(NS(=O)(=O)c2ccc(Br)s2)nc1,14.5%
16,COc1cc(OC)cc(C(=O)NC(=S)NNC(=O)[C@H]2C[C@@H]2c2ccccc2)c1,9.85%
17,O=C(Nc1cccc([N+](=O)[O-])c1)c1ccc(-c2ccccc2)cc1,0.755%
18,Cc1csc2c(N3CCCCC3)ncnc12,11.9%
19,CCn1c(SCc2ccc(C(=O)OC)o2)nc2sc3c(c2c1=O)CCCC3,12.4%
20,Cc1ccc(NC(=O)Cc2c(Cl)cccc2Cl)cc1S(=O)(=O)N(C)C,15.5%
21,Cn1c(CSc2nc3ccc(Br)cc3[nH]2)nc2ccccc21,6.65%
22,CS(=O)(=O)N1CCN(c2ccc([N+](=O)[O-])c(SCc3ccco3)c2)CC1,-0.93%

row,SMILES,"hERG current change (%, negative = inhibition) at 1uM"
1,CC(C)(C)NC(=O)CN(Cc1ccc2c(c1)OCO2)C(=O)CNS(=O)(=O)c1ccccc1,12.2%
2,CC(C)Oc1ccc(S(=O)(=O)N2CCOCC2)cc1NC(=O)Cc1c(F)cccc1Cl,14.8%
3,CCOc1ccc(N2CC(C(=O)Nc3cccc(S(=O)(=O)N4CCCC4)c3)CC2=O)cc1 (centres unmarked),-4.63%
4,Oc1ccc(Cl)cc1-c1cc(C(F)(F)C(F)F)nc(-c2ccccc2)n1,12.3%
5,Cc1ccc(N=Nc2c(N)nn3c(N)c(C#N)c(C)nc23)cc1,9.26%
6,COc1ccc(NC(=O)c2ccc3c(=O)n(Cc4ccco4)c(=S)[nH]c3c2)c(OC)c1,9.15%
7,CCc1ccc2c(c1)cc(C)c1nnc(SCC(=O)Nc3cc(OC)c(OC)cc3C(=O)O)n12,7.24%
8,O=C(O)CC1(CC(=O)NCc2ccncc2)CCCCC1,5.68%
9,CCOCCCNCc1cc(Cl)cc(Cl)c1OCC.Cl,-6.59%
10,CCN(CC)C(=O)Nc1ccccc1C,11%
11,COc1ccc(C(=O)COC(=O)Cn2cnc3ccccc3c2=O)c(OC)c1,3.53%
12,COc1ccc(OC)c(C2NC(=O)N(C)C(C)=C2C(=O)OCc2ccccc2)c1 (centres unmarked),5.6%
13,COCCn1c(C)cc(/C=N/NC(=O)c2cccnc2)c1C,19.1%
14,COc1ccc(CCNC(=O)C2CCC(=O)N(C3CC3)C2)c(OC)c1 (centres unmarked),6.06%
15,Cc1nc(SCC(=O)NC(=O)NC(C)C)nc(C)c1C,17.5%
16,Cc1c(CN2CC[C@@H](N3CCN(c4ccccn4)CC3)[C@H](O)C2)[nH]c2ccc(F)cc12,6.76%
17,CCOC(=O)Cn1cc(/C=N/NC(=O)CC#N)c2ccccc21,14.2%
18,CCC(=O)Nc1ccc(NC(=O)c2cccc(OC)c2)nc1,7.14%
19,CCc1cc(=O)n2[nH]c(C)c(-c3ccc(OC)cc3)c2n1,8.15%
20,COc1ccccc1-c1nnc(SCC(=O)NC2CCS(=O)(=O)C2)n1N (centres unmarked),8.12%
